The values that follow come from PubChem BioAssay AID1159614 (National Center for Advancing Translational Sciences (NCATS), 2016).

Screen size: about 45,000 compounds; about 65 (0.1%) were called active. The call rests on the fitted dose curve; in most records, active means well fitted activation curve with a large enough effect; inconclusive means small, poorly fitted or top-dose-only effect; inactive means no such curve, though single readings can be large or run the other way. Some of the results follow.

This assay concerns the target Galactocerebrosidase (Homo sapiens) (UniProt P54803). The assay is described as follows: A Novel Cell-Based Assay to Identify Small Molecules for B -Galactocerebrosidase. Further: 0% is about no effect; nearly all actives have a fitted effect of over 65% in size. The following applies: 145M-Twi-hGALC-G270D cells, HMU-beta-Gal fluorescence, 48 h; series mostly up to 57.5 µM; activation: at the top concentration. An outline of the steps: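 qHTS, 1536-well; 145M-Twi-hGALC-G270D cells (WT line also made) in DMEM/F12 + 10% FBS; compound incubation on live cells; HMU-β-gal 0.1 mM final, pH 5.2, NaTC; carbonate stop; fluorescence increase = enhanced residual activity.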
Sequence of UniProt P54803 (P54803 whole entry, looked up): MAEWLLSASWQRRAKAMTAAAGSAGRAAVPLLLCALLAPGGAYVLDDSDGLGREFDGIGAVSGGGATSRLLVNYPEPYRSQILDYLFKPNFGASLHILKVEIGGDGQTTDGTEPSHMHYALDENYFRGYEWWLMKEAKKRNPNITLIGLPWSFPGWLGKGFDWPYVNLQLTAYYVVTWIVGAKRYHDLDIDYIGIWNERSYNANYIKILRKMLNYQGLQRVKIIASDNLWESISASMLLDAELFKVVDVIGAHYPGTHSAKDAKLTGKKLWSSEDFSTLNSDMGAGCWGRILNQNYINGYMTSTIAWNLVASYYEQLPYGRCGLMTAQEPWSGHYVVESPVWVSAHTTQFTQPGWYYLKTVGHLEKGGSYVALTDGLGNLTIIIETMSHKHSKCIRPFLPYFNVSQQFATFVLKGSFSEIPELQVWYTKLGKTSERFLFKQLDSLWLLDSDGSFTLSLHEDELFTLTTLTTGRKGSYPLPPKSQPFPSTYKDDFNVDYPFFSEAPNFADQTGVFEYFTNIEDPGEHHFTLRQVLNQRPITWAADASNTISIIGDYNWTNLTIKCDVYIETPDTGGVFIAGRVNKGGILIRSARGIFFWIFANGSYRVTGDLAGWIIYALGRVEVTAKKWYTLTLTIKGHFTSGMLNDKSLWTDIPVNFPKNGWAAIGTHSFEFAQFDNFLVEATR
On to `CC(C)CCn1c(=O)c2sccc2n2c(CCCC(=O)NC(C)c3ccccc3)nnc12` (stereo unspecified), for which the “activation” value is inactive: -11.1%. Regarding `Cc1cccc(-n2cnc3cc(C(=O)NC4CCCCCC4)ccc32)c1`, the “activation” value was inactive: -50%. Consider `Cc1cccc(OCC(=O)Nc2ccccc2C(=O)OCc2cc(=O)n3nc(C4CC4)sc3n2)c1`, for which the “activation” value was inactive: -6.25%. Take `CCc1cnc2c(c1SCCC(C)C)c(=O)n(C)c(=O)n2C`: the “activation” value was inactive: -7.82%.

Take `CCOC(=O)c1ccc(NC(=O)c2c(NCc3cc(OC)ccc3OC)sc3c2CCC3)cc1`: the “activation” value was inactive: -9.06%.

Consider `Cc1ccc2cc3cc(C(=O)N(C)c4ccccc4C)oc3nc2c1`, for which the “activation” value is inactive: -10.1%. For the compound `CCc1cccc(N2C(=O)N(Cc3c(F)cccc3Cl)c3ccccc3S2(=O)=O)c1`, the “activation” value was inactive: -2.65%. The same measure for `CCn1cc(C(=O)Nc2ccc(C(C)C)cc2)c2cc(OC)c(OC)cc2c1=O`: inactive: -5.74%; for `Cc1cccc(C)c1NC(=O)CN1C(=O)c2ccccc2Sc2ncccc21`: inactive: -17.7%.

On to `COc1ccc(C)cc1NC(=O)CN1CCN(S(=O)(=O)c2ccc(Br)cc2)CC1`, for which the “activation” value was inactive: 10.8%. For `COC(=O)c1cc2sc(C)cc2n1CC(=O)Nc1ccc(C)cc1Cl`, the “activation” value was inactive: -14.8%. Take `CC(C)OCCCNC(=O)c1nn(C)c2c1CSc1ccccc1-2`: the “activation” value was inactive: -1.84%. Turning to `CCCOC(=O)c1ccc(Nc2c(C(=O)OCC)cnc3c(C)cc(Cl)cc23)cc1`, the “activation” value is inactive: -5.07%.

Take `COc1ccc(-c2noc(CSc3nnc(-c4ccccc4)n3C)n2)cc1`: the “activation” value is inactive: -8.47%.

Regarding `COc1ccc(-n2cc(C(=O)NC(C)c3ccccc3)c3ccccc3c2=O)cc1` (stereo unspecified), the “activation” value is inactive: -2.75%. For `O=C(NC1CCCC1)c1ccc(CSc2nc3ccncc3n2Cc2ccc(F)cc2)cc1`, the “activation” value was inactive: -1.47%.

In the case of `Cc1ccc(N2CC(c3nnc(NC(=O)c4ccco4)s3)CC2=O)cc1C` (stereo unspecified), the “activation” value was inactive: -12.1%. As to `CCOc1ccc(NC(=O)c2ccc(-c3cccc(Cl)c3C)o2)cc1`, the “activation” value was inactive: -8.99%.

As for `Cc1ccc(NC(=O)Cn2cc(S(=O)(=O)N3CCCC3)c(S(=O)(=O)N3CCCC3)c2)cc1C`, the “activation” value is inactive: -27.1%. With `CCN1CCN(c2cc(C)c3cc(NC(=O)/C=C/c4cccc(Cl)c4)ccc3n2)CC1`, the “activation” value was inactive: -7.87%. Turning to `CCCCC[C@H](O)C=C[C@H]1[C@H](O)CC(=O)[C@H]1CC=CCCCC(=O)O`, the “activation” value was inactive: -11.2%. With `CCOc1ccc(Cn2c(CNS(=O)(=O)c3ccc([N+](=O)[O-])cc3)nc3cccnc32)cc1`, the “activation” value is inactive: -4.76%.

Turning to `O=c1c2cc3c(nc2ncn1Cc1ccccc1F)CCCC3`, the “activation” value was inactive: -18.7%. On to `CCOC(=O)c1cnc2c(ccc3ccccc32)c1Nc1ccc(OC)c(OC)c1`, for which the “activation” value was inactive: -7.03%.

In the case of `Cc1cccc(C2C=C(c3ccc(F)cc3)Nc3nc4ccccc4n32)c1` (stereo unspecified), the “activation” value was inactive: -2.72%. The same measure for `Cc1ccc(NC(=O)Nc2nnc(SCC(=O)N3CCC(C)CC3)s2)cc1`: inactive: -5.29%; for `COc1ccc(C(=O)NCCSc2c(C)[nH]c3ccccc23)cc1`: inactive: -36.8%. As to `COCCn1ccc2c(OCC(=O)NCc3ccc(F)cc3)cccc2c1=O`, the “activation” value was inactive: -15.5%. For `COc1ccc(C(=O)N2CCC(c3c[nH]c4ccccc34)(c3c[nH]c4ccccc34)CC2)cc1`, the “activation” value was inactive: -17.3%. For the compound `COc1ccccc1-c1cc(C(F)(F)F)nc(S(=O)(=O)CCCC(=O)Nc2ccc(F)c(Cl)c2)n1`, the “activation” value is inactive: -6.73%. Take `Cc1ccc(C)c(CN2C(=O)c3ccccc3S(=O)c3ccc(C(=O)NCCc4ccc(Cl)cc4)cc32)c1` (stereo unspecified): the “activation” value was inactive: 4.64%. As to `Cc1c(NS(C)(=O)=O)cccc1-c1nc2ccccc2s1`, the “activation” value was inactive: -3.81%. As to `COc1ccc(NC(=O)c2sc3nc(-c4cc5cccc(OC)c5oc4=O)[nH]c(=O)c3c2C)cc1`, the “activation” value is inactive: -10.2%. Take `COc1ccccc1CNC(=O)c1oc2c(c1C)-c1nn(Cc3ccc(Cl)cc3)cc1CC2`: the “activation” value is inactive: -7.28%. For `COc1ccc(NC(=O)c2cc(C3CC3)nc3c2c(C)nn3-c2ccc(C)cc2)cc1OC`, the “activation” value is inactive: -16.2%. As for `CN(C)c1ccc(CNC(=O)C2CCN(S(=O)(=O)c3cn(C)cn3)CC2)cc1`, the “activation” value is inactive: -17.6%. Turning to `CCOc1ccc(N(CC)S(=O)(=O)N2CCCC(C(=O)NCc3ccc(SC)cc3)C2)cc1` (stereo unspecified), the “activation” value is inactive: -18.6%. Regarding `COc1cccc(CNC(=O)NCc2noc3ccc(C)cc23)c1`, the “activation” value is inactive: -18.6%.

As to `COc1ccc(NC(=O)Nc2nnc(N3CCCCCC3)s2)c(OC)c1`, the “activation” value is inactive: -22.8%. The figure for `COc1ccc(NC(=O)CN2C(=O)COc3ccc(S(=O)(=O)N4CCOCC4)cc32)cc1Cl` is inactive: -9.62%; for `COc1ccc(N2CCN(C(=O)CCS(=O)(=O)c3cc(Br)cc4c3N(C(=O)C3CC3)CC4)CC2)cc1` it is inactive: -10.9%. The same measure for `Cc1ccc(NC(=O)CN2C=NS(=O)(=O)c3ccccc32)c(C)c1`: inactive: -18.7%; for `COc1ccccc1C(=O)Nc1ccc(C(=O)OCc2cc(=O)n3ccsc3n2)cc1`: inactive: 3.85%; for `COc1ccccc1C(=O)NC(=O)Nc1ccc(-n2nc(C(F)(F)F)cc2C(F)(F)F)cc1`: inactive: -14.5%. The figure for `Cc1ccc(N2CC(NC(=O)CCc3ccccc3)CC2=O)cc1` (stereo unspecified) is inactive: -12.1%; for `COc1ccc(-c2ccc3c(N)c(C(=O)Nc4cccc(C)c4)sc3n2)cc1` it is inactive: -23.9%. With `COc1cccc(CSc2nc3n(n2)C(c2cccnc2)C(C(=O)Nc2ccccc2C)=C(C)N3)c1` (stereo unspecified), the “activation” value is inactive: -7.18%. For `CC1=C(C(=O)NCc2ccc(Cl)cc2)C2(CCCCCC2)OC1=O`, the “activation” value was inactive: 13.1%. Regarding `CCOC(=O)CCn1nc(C)c2c(C)n(-c3ccccc3)nc2c1=O`, the “activation” value was inactive: -12.6%.

Consider `Cc1cccc(N2CCN(C(=O)Cn3c(=O)c4cccn4c4ccc(F)cc43)CC2)c1C`, for which the “activation” value is inactive: -14.5%.

Regarding `Cc1nc2cc(C(=O)O)ccc2n1-c1ccc(C(C)C)cc1`, the “activation” value was inactive: -15.9%. In the case of `CCOC(=O)c1sc(NC(=O)c2cc3nc(-c4ccc(Br)cc4)cc(C(F)(F)F)n3n2)c(C(=O)OCC)c1C`, the “activation” value is inactive: -6.61%.

In the case of `COc1ccc(OC)c(CNC(=O)CN2C(=O)CCn3nc(-c4cn(C)c5ccccc45)cc32)c1`, the “activation” value is inactive: -18.2%.

Consider `N#Cc1ccc(NS(=O)(=O)c2ccc(-c3cnc(C4CC4)o3)cc2)cc1`, for which the “activation” value was inactive: -17.4%. Consider `Cc1ccc(NC(=O)c2ccc(Br)cc2)c(C(=O)c2ccccc2)c1`, for which the “activation” value was inactive: -9.37%. Consider `CC(C)CC(=O)Nc1ccc(Cl)c(-c2nc3ccccc3[nH]2)c1`, for which the “activation” value was inactive: -5.58%. Turning to `Cc1nc2nc(SCC(=O)NCc3ccccc3)nn2c(C)c1Cc1ccccc1`, the “activation” value was inactive: -8.46%. The figure for `CCc1cccc(NC(=O)CN2C=NS(=O)(=O)c3ccccc32)c1` is inactive: -16.2%. The figure for `CNC(=O)c1ccc(Nc2nnc(-c3ccc(C)c(S(=O)(=O)N4CCOCC4)c3)c3ccccc23)cc1` is inactive: -13.1%; for `Cc1ccc(C)n1-c1nnc(N2CCCC(C(=O)NCc3ccccc3)C2)s1` (stereo unspecified) it is inactive: -16.8%; for `COc1cc2nc(NCC(C)c3ccccc3)n3nc(-c4ccccc4)nc3c2cc1OC` (stereo unspecified) it is inactive: -17%. In the case of `Cc1ccc(NC(=O)CCc2c(C)nc3nc(C)nn3c2C)c(Cl)c1`, the “activation” value was inactive: 2.19%. For `CCOc1nc(NC(=O)NS(=O)(=O)Oc2ccccc2Cl)nc(-c2ccccc2)n1`, the “activation” value was inactive: -11.8%. `CC(=O)Oc1ccccc1C(=O)O`: the “activation” value was inactive: -9.8%. Consider `O=C(NCc1ccccc1)C(=O)NCC(c1cccnc1)N1CCN(c2ccccc2)CC1` (stereo unspecified), for which the “activation” value is inactive: -4.24%. The figure for `COc1ccc(CCNC(=O)c2nn(C)c3c2CSc2ccccc2-3)cc1OC` is inactive: -9.55%; for `Cc1ccc(N(Cc2cccs2)C(=O)COc2ccccc2[N+](=O)[O-])cc1` it is inactive: -6.14%; for `CC(=O)Nc1ccc(S(=O)(=O)NCCc2csc3nc(-c4cccc(C)c4)nn23)cc1` it is inactive: -17.2%. The figure for `O=C(c1ccco1)n1nc(-c2ccccc2)nc1NCc1ccccc1Cl` is inactive: -20.2%. Take `O=C(NCc1ccccc1Cl)C1CCC(CNS(=O)(=O)c2ccc(Br)s2)CC1` (stereo unspecified): the “activation” value was inactive: -12.9%.

In the case of `CCc1ccc(NC(=O)CSc2nc3ccsc3c(=O)n2C(C)CC)cc1` (stereo unspecified), the “activation” value was inactive: 4.27%. For `Cc1cccc(-c2nc(Cn3c(SCc4cc(C)ccc4C)nc4ccncc43)c(C)o2)c1`, the “activation” value was inactive: -10.1%.

Turning to `COc1ccccc1-n1c(SCC(=O)Nc2ccc(C)cc2)nc(O)cc1=O`, the “activation” value is inactive: -11.8%. The same measure for `COc1cc(CN(C(=O)c2oc3ccccc3c2C)C2CCS(=O)(=O)C2)cc(OC)c1OC` (stereo unspecified): inactive: -4.07%; for `O=C(CCCn1c2ccccc2c(=O)c2ccccc21)Nc1ccc(F)cc1Cl`: inactive: -15.3%. For the compound `Cc1ccc(-c2nn3c(-c4ccc(C)cc4)nnc3c3ccccc23)cc1`, the “activation” value was inactive: -8.79%. `CNS(=O)(=O)CCc1ccc2[nH]cc(C3CCN(C)CC3)c2c1`: the “activation” value is inactive: -3.61%. Take `COc1ccc(-c2noc(-c3ccc(NC(C)c4ccccc4)c([N+](=O)[O-])c3)n2)cc1OC` (stereo unspecified): the “activation” value is inactive: 1.09%. With `CCc1ccc(-c2cc(C)no2)cc1S(=O)(=O)Nc1ccc(Cl)cc1`, the “activation” value was inactive: -9.5%.

Consider `COc1cccc(NC(=O)c2cc3c(=O)n(Cc4cccnc4)ccc3nc2C)c1`, for which the “activation” value is inactive: -9.63%. With `COc1ccccc1CNC(=O)CCC1N=C2c3ccccc3N=C(SCC(=O)NCCc3ccc(OC)c(OC)c3)N2C1=O` (stereo unspecified), the “activation” value was inactive: -10.4%. The same measure for `Cc1ccc(-c2nc(S(=O)(=O)c3ccc(C)cc3)c(SCC(=O)NC3CCCCC3)o2)cc1`: inactive: -25.9%; for `COc1cc(NC(=O)C(CCS(C)(=O)=O)N2Cc3ccccc3C2=O)cc(OC)c1OC` (stereo unspecified): inactive: -13.2%. With `COc1cccc(C2CC(=O)N3CN(C4CCCCC4)CSC3=C2C#N)c1` (stereo unspecified), the “activation” value was inactive: -11.4%. The same measure for `CC1CN(C(=O)N2CCC(C(=O)NC3CCCCCC3)CC2)c2ccccc2O1` (stereo unspecified): inactive: -14.9%. The same measure for `CCCN1C(=O)c2[nH]nc(-c3ccc(F)cc3)c2C1c1ccccn1` (stereo unspecified): inactive: -15.1%; for `CN(C)c1ccc(NC(=O)CSC2=Nc3ccccc3C3=NC(CC(=O)NCc4ccccc4)C(=O)N23)cc1` (stereo unspecified): inactive: -15.8%. With `CCOc1ccccc1CN(CCc1ccc2c(c1)OCO2)Cc1cccc(OC)c1OC`, the “activation” value is inactive: -26.4%.

In the case of `CCOC(=O)c1c(C)[nH]c(CCC(=O)NCc2ccccc2C)c1C`, the “activation” value was inactive: -12%. Regarding `CCN1CCC(N(Cc2ccc3c(c2)OCO3)C(=O)Nc2ccccc2OC)CC1`, the “activation” value was inactive: -11.1%. For the compound `Cc1ccc(C)c(NC(=O)CCCn2c(C)c3cnn(-c4ccccc4)c(=O)c3c2C)c1`, the “activation” value was inactive: 8.71%.

With `CCc1ccc(NC(=O)CSc2nc(C)c(C(=O)Nc3ccc(Cl)cc3)c(-c3ccc(OC)cc3)c2C#N)cc1`, the “activation” value is inactive: -11.2%.

Consider `Cc1cc(C)c2c(n1)SCC(=O)N2CC(=O)Nc1ccccc1C`, for which the “activation” value is inactive: -6.8%. For `CNC(=O)C1CCC(Cn2c(=O)c3sccc3n(CC(=O)NCc3ccc(C)cc3)c2=O)CC1` (stereo unspecified), the “activation” value was inactive: -6.39%.

For `COc1ccc(NC(=O)Cn2c(=O)oc3cc(Cl)ccc32)c(OC)c1`, the “activation” value was inactive: -11.6%. Regarding `Cn1c(=O)oc2cc(S(=O)(=O)N3CCCC(C(=O)NCc4ccccc4Cl)C3)ccc21` (stereo unspecified), the “activation” value was inactive: -11.2%.
